# PubChem BioAssay AID1508649 (National Center for Advancing Translational Sciences (NCATS), 2021)
# Screen size: about 43,000 compounds; about 830 (1.9%) were called active. The shares of active, inactive and inconclusive entries below differ from those in the screen. How the source made its calls: active means clear falling dose curves in both reporters; inconclusive means both reporters move, but less clearly or upward; inactive means either reporter flat; the % is the NLuc reporter signal. Potencies of inconclusive entries are left out as doubtful fits.
# Assay: Cell-based coincidence reporter assay to measure PMP22 gene transcription in S16 Pmp22-F2sN cells - Primary screen
# Settings: S16 Pmp22-F2sN Schwann cells (luciferase reporters placed in the Pmp22 gene), FLuc/NLuc coincidence luminescence, 24 h; measured here: NLuc reporter readout, at 57.5 µM (top of the series)
# Outline: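 Transcriptional readout in edited S16(c9) cells: two luciferases reported from the Pmp22 locus, measured in turn after 24 h compound incubation.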
# Potency means the concentration at half of the fitted maximal effect; tags describe the fitted curve by direction and shape.
row,Structure (SMILES),Potency
1,COc1ccccc1CNc1nc2c(S(=O)(=O)c3ccc(C)c(C)c3)nnn2c2ccc(Cl)cc12,active: 6.31 µM
2,Cc1[nH]c2ccccc2c1C1(O)C(=O)N(Cc2ccccc2)c2ccc(Cl)cc21 (stereo not drawn),active: 16.3 µM
3,COc1ccccc1N1CCN(S(=O)(=O)c2ccc(F)c(C(=O)Nc3ccc(Cl)cc3C(F)(F)F)c2)CC1,"inconclusive [phenotype inactive, single point]"
4,CCOC(=O)c1c(S(=O)(=O)N2CCCC(C(=O)N3CCN(c4cc(C)ccc4C)CC3)C2)c(C)n(C)c1C (stereo not drawn),"inconclusive [phenotype inactive, single point]"
5,CCc1ccc(NC(=O)Cn2nc(SC)c(S(=O)(=O)c3ccc(OC)cc3)c2N)cc1,"inconclusive [phenotype inactive, single point]"
6,Cc1cn(C)c(CC(=O)Nc2ccc(F)cc2Cl)c1C(=O)O,inactive
7,CCCCNC(=O)c1ccc2c(c1)N=C(CC)c1ccccc1S2,active: 12.4 µM
8,Cc1ccccc1Nc1nc(N)c(C(=O)c2ccccc2Cl)s1,"inconclusive [phenotype inactive, single point]"
9,CCc1ccc(S(=O)(=O)Nc2cc3c(cc2C)n(C)c(=O)c(=O)n3C)cc1,"inconclusive [phenotype inactive, partial curve]"
10,Cc1ccc(C)c(N2CCN(S(=O)(=O)c3cc(C(=O)Nc4ccccc4C(F)(F)F)ccc3F)CC2)c1,"inconclusive [phenotype inactive, single point]"
11,CCOC(=O)c1[nH]c(C)c(CCC(=O)N2CCN(c3cc(C)ccc3C)CC2)c1C,"inconclusive [phenotype inactive, single point]"
12,Cc1ccc(NC(=O)Cn2c(=O)n(Cc3ccc(F)cc3)c(=O)c3cccnc32)cc1C,"inconclusive [phenotype inactive, partial curve]"
13,Oc1ccccc1-c1nc2cnccn2c1Nc1ccc(Cl)cc1,"inconclusive [phenotype inactive, single point]"
14,COc1ccc(Cl)cc1NC(=O)Cn1c(=O)n(-c2ccc(C)cc2)c(=O)c2ccc(C(=O)NCc3ccccc3Cl)cc21,active: 10 µM
15,COc1ccc(CNC(=O)CC(C)CC2=NS(=O)(=O)c3ccccc3N2)cc1 (stereo not drawn),"inconclusive [phenotype inactive, single point]"
16,CCOC(=O)c1ccc(Nc2c(-c3ccc(OC)cc3)nc3nc[nH]n23)cc1,"inconclusive [phenotype inactive, single point]"
17,COc1ccc(S(=O)(=O)NCCc2csc(-c3cccc(F)c3)n2)cc1OC,"inconclusive [phenotype inactive, partial curve, poor fit]"
18,CCOc1cccc(CNC(=O)c2ccc(N3CCCC3)c(NC(=O)Nc3ccccc3CC)c2)c1,"inconclusive [phenotype inactive, single point]"
19,Cc1ccc(NC(=O)Nc2c(C)n(C)n(-c3ccccc3)c2=O)c(Cl)c1,"inconclusive [phenotype inactive, single point]"
20,CCOc1ccc(CN2C(=O)C(=O)c3cccc(C)c32)cc1OC,active: 11.3 µM

row,Structure (SMILES),Potency
1,COc1ccc(NC(=O)c2nnn(CC(=O)Nc3cccc(C)c3C)c2N)c(OC)c1,"inconclusive [phenotype inactive, single point]"
2,Cc1cc(OC(C)C(=O)N2CCC(c3nc4ccccc4o3)CC2)ccc1Cl (stereo not drawn),"inconclusive [phenotype inactive, single point]"
3,CC1=C(C(N)=O)C(c2cccc(Br)c2)n2nc(SCc3ccccc3Cl)nc2N1 (stereo not drawn),inactive
4,CCc1nc2ccc(C(=O)N3CCN(c4cc(C)ccc4C)CC3)cc2nc1CC,"inconclusive [phenotype inactive, single point]"
5,CCCCCOc1ccccc1CN1C(=O)C(=O)c2cc(C)ccc21,active: 13.5 µM
6,CCN(CC)S(=O)(=O)c1ccc2c(c1)c(=O)c(C(=O)NCCc1ccccc1)cn2C,"inconclusive [phenotype inactive, single point]"
7,COc1ccc(-n2ncc(C(=O)N3CCN(C4CCCCC4)CC3)c2C2CCN(C(=O)OC(C)(C)C)CC2)cc1,"inconclusive [phenotype inactive, single point]"
8,CCOC(=O)Cc1c(C)nc2cc(-c3ccc(C(C)(C)C)cc3)nn2c1C,"inconclusive [phenotype inactive, single point]"
9,COc1ccc(CCNc2nc(SCc3ccccc3F)nc3ccccc23)cc1OC,"inconclusive [phenotype inactive, single point]"
10,CC(=O)c1cccc(NC(=O)CCn2nc(C)c(S(=O)(=O)N(C)C)c2C)c1,"inconclusive [phenotype inactive, single point]"
11,CCCNC(=O)CSc1c2c(nc3ccc(Cl)cc13)CCCC2,"inconclusive [phenotype inactive, single point]"
12,COc1ccc(-n2c(Cc3ccccc3)nnc2SCc2nc(-c3ccccc3C)no2)cc1,"inconclusive [phenotype inactive, single point]"
13,Cc1c2cnn(-c3ccccc3)c(=O)c2c(C)n1CC(=O)N1CCN(c2cccc(Cl)c2)CC1,"inconclusive [phenotype inactive, single point]"
14,Cc1ccc(N(C)S(=O)(=O)c2ccc(-c3cnc(C4CC4)o3)cc2)cc1,active: 14.1 µM
15,CCCCN(CCCC)S(=O)(=O)c1ccc(C(=O)Nc2sc3c(c2C(N)=O)CCN(CC)C3)cc1,"inconclusive [phenotype inactive, single point]"
16,CCOC(=O)c1ccc(NC(=O)c2c(NCc3cccc(OC)c3)sc3c2CCC3)cc1,"inconclusive [phenotype inactive, single point]"
17,Cc1ccc(NC(=O)CSc2ncc3c(n2)-c2ccccc2N(C)S3(=O)=O)c(Cl)c1,active: 6.45 µM
18,COc1ccc(CN(C)c2ccc(-c3nc(C)no3)cc2[N+](=O)[O-])cc1,"inconclusive [phenotype inactive, single point]"
19,CN1CCN(CCNC(=O)c2cnn(-c3cccc(Cl)c3)c2C2CCN(C(=O)OC(C)(C)C)CC2)CC1,inactive
20,CCN1CCN(c2cc(C)c3cc(NC(=O)c4cc(Br)ccc4Cl)ccc3n2)CC1,"inconclusive [phenotype inactive, single point]"

row,Structure (SMILES),Potency
1,COc1ccccc1CNC(=O)CCCn1c(=O)c2ccccc2n(CC(=O)Nc2ccc(C)cc2Cl)c1=O,"inconclusive [phenotype inactive, partial curve]"
2,Cc1ccccc1Cn1c(=O)n(CC2CCC(C(=O)N3CCC(C)CC3)CC2)c(=O)c2sccc21 (stereo not drawn),"inconclusive [phenotype inactive, partial curve, poor fit]"
3,Cc1ccc(-c2nc3cc(Cl)ccc3o2)cc1NC(=O)c1cc2ccccc2o1,"inconclusive [phenotype inactive, single point]"
4,CCn1ccc2cc(S(=O)(=O)N3CCCN(C(=O)Nc4ccc(C)cc4Cl)CC3)ccc21,"inconclusive [phenotype inactive, single point]"
5,Cc1c(Cl)cccc1NC(=O)CSc1nc(=O)n(Cc2ccncc2)c2c1CCC2,"inconclusive [phenotype inactive, single point]"
6,CCC1Oc2ccc(C)cc2N(CC(=O)NCc2ccc(F)cc2)C1=O (stereo not drawn),"inconclusive [phenotype inactive, single point]"
7,Cc1ccc(C)c(N2CCN(C(=O)CN3CCSc4ccccc43)CC2)c1,"inconclusive [phenotype inactive, single point]"
8,Fc1ccc(F)c(Nc2c3c(nc4ccc(Cl)cc24)CCC3)c1,active: 18.9 µM
9,Cc1cccc(NC(=O)NC2COc3ccccc3C2)c1C (stereo not drawn),"inconclusive [phenotype inactive, partial curve, poor fit]"
10,COc1ccc2c(c1)c(=O)c(C(=O)c1ccc(C)cc1)cn2Cc1ccccc1F,"inconclusive [phenotype inactive, single point]"
11,Cc1ccc(C)c(NC(=O)CSc2nnc(C)n3c2cc2occc23)c1,"inconclusive [phenotype inactive, single point]"
12,Cc1ccc(Oc2nc3c(c(=O)n(Cc4ccccc4Cl)c(=O)n3C)n2C)cc1C,"inconclusive [phenotype inactive, partial curve, poor fit]"
13,O=C1C2=C(Nc3ccccc3SC2c2ccc(Cl)c(Cl)c2)c2ccccc21 (stereo not drawn),"inconclusive [phenotype inactive, single point]"
14,CCS(=O)(=O)c1nc(S(=O)(=O)c2ccc(C)cc2)c(NCc2ccc(Cl)cc2)s1,inactive
15,Cc1ccc(N2C(=O)c3oc4cc(C)c(C)cc4c(=O)c3C2c2cccc(O)c2)nc1 (stereo not drawn),inactive
16,Cc1ccc(NC(=O)c2nc(S(=O)(=O)Cc3cccc(C)c3)ncc2Cl)cc1,active: 4.22 µM
17,O=C(NCc1ccccc1Cl)c1cnc(N2CCCCC2)c2ccccc12,inactive
18,Cc1cc(NC(=O)C2CCC(CNS(=O)(=O)c3ccc(Br)s3)CC2)ccc1Br (stereo not drawn),"inconclusive [phenotype inactive, single point]"
